# From PMC12820563, “FoxP3 forms a head-to-head dimer in vivo and stabilizes its multimerization on adjacent microsatellites”
# The other results are listed elsewhere or left out.
# Biological target: T1, MBP-FoxP1dN (Mus musculus, UniProt P58462 326-579)
# T1 sequence: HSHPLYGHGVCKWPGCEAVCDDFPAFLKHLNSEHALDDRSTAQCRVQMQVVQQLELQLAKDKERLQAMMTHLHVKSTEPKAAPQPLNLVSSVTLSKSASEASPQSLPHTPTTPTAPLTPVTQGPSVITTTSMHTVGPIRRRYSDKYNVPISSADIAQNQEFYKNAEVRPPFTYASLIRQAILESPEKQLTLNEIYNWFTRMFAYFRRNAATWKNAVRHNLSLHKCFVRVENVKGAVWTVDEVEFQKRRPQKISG
# Assay: PD-seq (MBP pull-down with sequencing); 20 mM Tris-HCl pH 7.5, 100 mM NaCl, 1.5 mM MgCl2, 0.4 uM protein, 0.1 uM dsDNA library, 30 min, room temperature, amylose pull-down; high values mean tight binding
# Settings: protein: recombinant; tags: His6-MBP; chain copies: 2; dsDNA, one strand shown
# How it was run: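 Amylose resin was used to capture complexes formed during 30 min at room temperature in Tris pH 7.5 buffer with NaCl and MgCl2 between 0.4 µM His6-MBP-tagged mouse FoxP3 or FoxP1 fragment lacking the N-terminus, expressed in E. coli, and 0.1 µM Klenow-filled double-stranded degenerate DNA library. After three washes, the DNA was released with proteinase K, barcoded by PCR and sequenced on Illumina. Binding is pooled-replicate reads-per-million enrichment, pull-down over input.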
row,Sequence,binding signal
1,GATGATTGTTCTCCCAGCTGATGAATTAGGTGGCTCGAGTAAACAAATTTTCCTAATCTTTCTGTTCAAGCGCCATCTAC,0.87 RPM ratio (pull-down/input)
2,GATGATTGTTCTCCCAGCTGATGAATTCAAATTATCGAGTAAACAAATTTTCCTAATCTTTCTGTTCAAGCGCCATCTAC,0.993 RPM ratio (pull-down/input)
3,GATGATTGTTCTCCCAGCTGATGAATTAGCCCGGTCGAGTAAACAAATTTTCCTAATCTTTCTGTTCAAGCGCCATCTAC,0.779 RPM ratio (pull-down/input)
4,GATGATTGTTCTCCCAGCTGATGAATTCGTGCAGTCGAGTAAACAAATTTTCCTAATCTTTCTGTTCAAGCGCCATCTAC,0.909 RPM ratio (pull-down/input)
5,GATGATTGTTCTCCCAGCTGATGAATTACTGCCGTCGAGTAAACAAATTTTCCTAATCTTTCTGTTCAAGCGCCATCTAC,0.959 RPM ratio (pull-down/input)
6,GATGATTGTTCTCCCAGCTGATGAATTAGTTCCATCGAGTAAACAAATTTTCCTAATCTTTCTGTTCAAGCGCCATCTAC,0.972 RPM ratio (pull-down/input)
7,GATGATTGTTCTCCCAGCTGATGAATTAGAACCCTCGAGTAAACAAATTTTCCTAATCTTTCTGTTCAAGCGCCATCTAC,0.832 RPM ratio (pull-down/input)
8,GATGATTGTTCTCCCAGCTGATGAATTAACTCCATCGAGTAAACAAATTTTCCTAATCTTTCTGTTCAAGCGCCATCTAC,0.914 RPM ratio (pull-down/input)
9,GATGATTGTTCTCCCAGCTGATGAATTCACGCCTTCGAGTAAACAAATTTTCCTAATCTTTCTGTTCAAGCGCCATCTAC,0.972 RPM ratio (pull-down/input)
10,GATGATTGTTCTCCCAGCTGATGAATTTATTCAGTCGAGTAAACAAATTTTCCTAATCTTTCTGTTCAAGCGCCATCTAC,1.14 RPM ratio (pull-down/input)
11,GATGATTGTTCTCCCAGCTGATGAATTTACGTGGTCGAGTAAACAAATTTTCCTAATCTTTCTGTTCAAGCGCCATCTAC,1.11 RPM ratio (pull-down/input)
12,GATGATTGTTCTCCCAGCTGATGAATTGCCCACTTCGAGTAAACAAATTTTCCTAATCTTTCTGTTCAAGCGCCATCTAC,0.941 RPM ratio (pull-down/input)
13,GATGATTGTTCTCCCAGCTGATGAATTCAATCCATCGAGTAAACAAATTTTCCTAATCTTTCTGTTCAAGCGCCATCTAC,0.967 RPM ratio (pull-down/input)
14,GATGATTGTTCTCCCAGCTGATGAATTCATTGGCTCGAGTAAACAAATTTTCCTAATCTTTCTGTTCAAGCGCCATCTAC,0.795 RPM ratio (pull-down/input)
15,GATGATTGTTCTCCCAGCTGATGAATTACCGGATTCGAGTAAACAAATTTTCCTAATCTTTCTGTTCAAGCGCCATCTAC,0.972 RPM ratio (pull-down/input)
16,GATGATTGTTCTCCCAGCTGATGAATTACTGGTCTCGAGTAAACAAATTTTCCTAATCTTTCTGTTCAAGCGCCATCTAC,0.851 RPM ratio (pull-down/input)

row,Sequence,binding signal
1,GATGATTGTTCTCCCAGCTGATGAATTGAGCCGGTCGAGTAAACAAATTTTCCTAATCTTTCTGTTCAAGCGCCATCTAC,0.734 RPM ratio (pull-down/input)
2,GATGATTGTTCTCCCAGCTGATGAATTCCCGCGCTCGAGTAAACAAATTTTCCTAATCTTTCTGTTCAAGCGCCATCTAC,0.805 RPM ratio (pull-down/input)
3,GATGATTGTTCTCCCAGCTGATGAATTCTCACGCTCGAGTAAACAAATTTTCCTAATCTTTCTGTTCAAGCGCCATCTAC,0.88 RPM ratio (pull-down/input)
4,GATGATTGTTCTCCCAGCTGATGAATTCGGTAGGTCGAGTAAACAAATTTTCCTAATCTTTCTGTTCAAGCGCCATCTAC,0.791 RPM ratio (pull-down/input)
5,GATGATTGTTCTCCCAGCTGATGAATTTTAGGGCTCGAGTAAACAAATTTTCCTAATCTTTCTGTTCAAGCGCCATCTAC,0.789 RPM ratio (pull-down/input)
6,GATGATTGTTCTCCCAGCTGATGAATTTTCTCAGTCGAGTAAACAAATTTTCCTAATCTTTCTGTTCAAGCGCCATCTAC,0.973 RPM ratio (pull-down/input)
7,GATGATTGTTCTCCCAGCTGATGAATTGAAATATTCGAGTAAACAAATTTTCCTAATCTTTCTGTTCAAGCGCCATCTAC,0.884 RPM ratio (pull-down/input)
8,GATGATTGTTCTCCCAGCTGATGAATTAGCCAACTCGAGTAAACAAATTTTCCTAATCTTTCTGTTCAAGCGCCATCTAC,0.857 RPM ratio (pull-down/input)
9,GATGATTGTTCTCCCAGCTGATGAATTGCTCTCATCGAGTAAACAAATTTTCCTAATCTTTCTGTTCAAGCGCCATCTAC,1.04 RPM ratio (pull-down/input)
10,GATGATTGTTCTCCCAGCTGATGAATTCCAAGGCTCGAGTAAACAAATTTTCCTAATCTTTCTGTTCAAGCGCCATCTAC,0.734 RPM ratio (pull-down/input)
11,GATGATTGTTCTCCCAGCTGATGAATTATTAAGATCGAGTAAACAAATTTTCCTAATCTTTCTGTTCAAGCGCCATCTAC,1.08 RPM ratio (pull-down/input)
12,GATGATTGTTCTCCCAGCTGATGAATTATAGAACTCGAGTAAACAAATTTTCCTAATCTTTCTGTTCAAGCGCCATCTAC,0.936 RPM ratio (pull-down/input)
13,GATGATTGTTCTCCCAGCTGATGAATTTTGCGGCTCGAGTAAACAAATTTTCCTAATCTTTCTGTTCAAGCGCCATCTAC,0.831 RPM ratio (pull-down/input)
14,GATGATTGTTCTCCCAGCTGATGAATTTTGAAATTCGAGTAAACAAATTTTCCTAATCTTTCTGTTCAAGCGCCATCTAC,0.952 RPM ratio (pull-down/input)
15,GATGATTGTTCTCCCAGCTGATGAATTTGATAACTCGAGTAAACAAATTTTCCTAATCTTTCTGTTCAAGCGCCATCTAC,0.988 RPM ratio (pull-down/input)
